Experiment [1] addresses T1, Flag-tagged full-length RME-6 (mouse) (UniProt Q6PAR5).
T1 sequence: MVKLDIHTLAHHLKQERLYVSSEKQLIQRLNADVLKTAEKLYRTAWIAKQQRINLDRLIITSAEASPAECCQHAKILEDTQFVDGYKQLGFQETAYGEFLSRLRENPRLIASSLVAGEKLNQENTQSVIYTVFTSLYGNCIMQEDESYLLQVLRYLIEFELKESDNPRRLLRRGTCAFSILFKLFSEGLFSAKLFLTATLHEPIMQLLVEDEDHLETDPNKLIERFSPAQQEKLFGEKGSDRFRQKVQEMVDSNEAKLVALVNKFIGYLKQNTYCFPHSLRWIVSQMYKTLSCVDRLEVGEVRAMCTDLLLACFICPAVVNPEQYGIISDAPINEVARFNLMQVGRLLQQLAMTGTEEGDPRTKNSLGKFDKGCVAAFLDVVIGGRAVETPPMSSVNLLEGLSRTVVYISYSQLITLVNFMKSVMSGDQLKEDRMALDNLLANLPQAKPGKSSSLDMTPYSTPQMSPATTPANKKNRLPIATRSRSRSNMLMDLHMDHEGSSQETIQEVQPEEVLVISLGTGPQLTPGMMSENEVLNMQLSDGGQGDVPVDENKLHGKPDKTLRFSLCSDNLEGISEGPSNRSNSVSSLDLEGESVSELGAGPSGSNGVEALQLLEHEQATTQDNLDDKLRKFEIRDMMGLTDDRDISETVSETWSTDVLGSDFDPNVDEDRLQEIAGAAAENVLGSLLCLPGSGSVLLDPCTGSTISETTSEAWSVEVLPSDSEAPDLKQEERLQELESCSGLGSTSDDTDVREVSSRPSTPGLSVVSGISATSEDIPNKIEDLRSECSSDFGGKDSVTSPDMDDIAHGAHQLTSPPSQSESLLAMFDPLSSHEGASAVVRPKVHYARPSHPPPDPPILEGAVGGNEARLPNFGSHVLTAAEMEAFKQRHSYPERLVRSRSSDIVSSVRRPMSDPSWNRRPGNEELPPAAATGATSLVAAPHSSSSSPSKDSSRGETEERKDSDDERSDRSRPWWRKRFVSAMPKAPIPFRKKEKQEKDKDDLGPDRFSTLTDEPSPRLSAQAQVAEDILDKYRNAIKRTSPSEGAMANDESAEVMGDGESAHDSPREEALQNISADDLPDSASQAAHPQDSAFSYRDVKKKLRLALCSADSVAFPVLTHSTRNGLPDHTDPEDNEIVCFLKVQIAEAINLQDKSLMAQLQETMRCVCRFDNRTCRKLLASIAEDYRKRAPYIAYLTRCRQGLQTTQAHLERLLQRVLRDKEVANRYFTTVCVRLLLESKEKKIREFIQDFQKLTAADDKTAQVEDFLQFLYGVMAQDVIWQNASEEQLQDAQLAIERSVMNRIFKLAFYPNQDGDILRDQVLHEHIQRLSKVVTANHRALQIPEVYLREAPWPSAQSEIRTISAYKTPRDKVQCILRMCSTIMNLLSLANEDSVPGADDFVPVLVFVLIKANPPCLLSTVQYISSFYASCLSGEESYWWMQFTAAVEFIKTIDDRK
Nature of the experiment: co-IP; N2a cells co-transfected with PAT1a HA and Flag RME-6 forms; lysis in 50 mM Tris/HCl pH 7.5, 150 mM NaCl, 5 mM EDTA, 1% NP40; IP with anti-Flag (M2) by the results and legend (HA beads by the methods); Western blot with anti-Flag and anti-HA.

Chains of the proteins cited; added tags and fusions are not shown. Residues count along the entry.
UniProt Q92624: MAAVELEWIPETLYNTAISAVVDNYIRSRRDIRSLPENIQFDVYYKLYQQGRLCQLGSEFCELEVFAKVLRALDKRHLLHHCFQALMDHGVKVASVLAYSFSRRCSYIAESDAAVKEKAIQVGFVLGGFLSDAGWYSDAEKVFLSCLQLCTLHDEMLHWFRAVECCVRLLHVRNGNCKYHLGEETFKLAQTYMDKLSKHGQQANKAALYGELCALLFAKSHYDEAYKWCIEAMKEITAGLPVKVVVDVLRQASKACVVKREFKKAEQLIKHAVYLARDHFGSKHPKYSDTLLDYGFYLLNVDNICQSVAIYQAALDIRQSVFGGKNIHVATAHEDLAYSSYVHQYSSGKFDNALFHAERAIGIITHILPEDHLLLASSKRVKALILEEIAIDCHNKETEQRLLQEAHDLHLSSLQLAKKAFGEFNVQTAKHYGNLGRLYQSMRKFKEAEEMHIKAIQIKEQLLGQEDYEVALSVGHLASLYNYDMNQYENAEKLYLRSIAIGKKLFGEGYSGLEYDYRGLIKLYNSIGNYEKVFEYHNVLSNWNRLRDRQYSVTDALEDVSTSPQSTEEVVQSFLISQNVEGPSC
UniProt P63170: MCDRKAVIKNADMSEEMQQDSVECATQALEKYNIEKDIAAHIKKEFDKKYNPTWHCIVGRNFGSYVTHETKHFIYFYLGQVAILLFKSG
UniProt Q76MZ3, residues 268-589: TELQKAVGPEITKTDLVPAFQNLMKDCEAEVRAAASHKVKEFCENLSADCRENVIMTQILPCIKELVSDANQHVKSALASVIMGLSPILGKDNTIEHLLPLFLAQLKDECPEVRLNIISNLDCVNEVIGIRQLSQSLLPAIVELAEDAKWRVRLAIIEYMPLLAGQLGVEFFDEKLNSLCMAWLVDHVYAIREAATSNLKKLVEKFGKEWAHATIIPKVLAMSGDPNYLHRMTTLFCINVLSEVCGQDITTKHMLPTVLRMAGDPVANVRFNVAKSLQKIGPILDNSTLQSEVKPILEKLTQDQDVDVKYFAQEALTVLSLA

Experiment [2] has as its target T1, Flag-tagged full-length RME-6 (mouse). The experiment in a line: co-IP; as the co-IP of PAT1a HA and Flag RME-6, cell lysate treated with shrimp alkaline phosphatase before the co-immunoprecipitation; data not shown.
A further experiment concerns the target T2, LexA BD-gephyrin (UniProt Q03555).
T2 sequence: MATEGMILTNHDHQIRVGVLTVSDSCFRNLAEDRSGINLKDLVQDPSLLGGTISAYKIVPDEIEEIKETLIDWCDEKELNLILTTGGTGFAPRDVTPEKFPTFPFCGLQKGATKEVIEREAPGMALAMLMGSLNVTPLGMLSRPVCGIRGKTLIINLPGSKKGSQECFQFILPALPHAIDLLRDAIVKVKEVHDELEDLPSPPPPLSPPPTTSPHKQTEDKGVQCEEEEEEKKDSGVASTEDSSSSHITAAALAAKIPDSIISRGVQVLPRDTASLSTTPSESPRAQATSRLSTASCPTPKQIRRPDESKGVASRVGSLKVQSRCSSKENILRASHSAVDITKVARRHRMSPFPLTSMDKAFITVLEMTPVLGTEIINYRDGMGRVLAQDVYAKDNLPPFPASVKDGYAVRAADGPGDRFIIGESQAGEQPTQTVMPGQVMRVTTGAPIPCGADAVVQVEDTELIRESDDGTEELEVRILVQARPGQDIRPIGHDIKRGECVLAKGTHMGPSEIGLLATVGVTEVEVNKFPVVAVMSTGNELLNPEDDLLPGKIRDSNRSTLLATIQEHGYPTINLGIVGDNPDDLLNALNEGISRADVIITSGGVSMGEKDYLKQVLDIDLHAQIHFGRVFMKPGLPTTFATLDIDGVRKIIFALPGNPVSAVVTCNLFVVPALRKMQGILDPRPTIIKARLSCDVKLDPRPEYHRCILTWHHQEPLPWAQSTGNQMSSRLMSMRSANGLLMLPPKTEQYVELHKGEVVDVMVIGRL
The experiment in a line: two-hybrid; LexA BD baits (pHybLex/Zeo) and GAL4 AD preys (pPC86) in yeast L40; growth on selection medium lacking histidine with 20 mM 3-aminotriazole; screen of an adult mouse brain cDNA library and retransformation of the isolated clones.

For experiment [3], the target named is LexA BD-PAT1a full-length (protein interacting with APP tail 1a) (human) (UniProt Q92624). Described as above.
The target of experiment [4] is T3, GST-Krba1 (514-1044) (Mus musculus (house mouse)) (UniProt Q6NXZ1).
T3 sequence: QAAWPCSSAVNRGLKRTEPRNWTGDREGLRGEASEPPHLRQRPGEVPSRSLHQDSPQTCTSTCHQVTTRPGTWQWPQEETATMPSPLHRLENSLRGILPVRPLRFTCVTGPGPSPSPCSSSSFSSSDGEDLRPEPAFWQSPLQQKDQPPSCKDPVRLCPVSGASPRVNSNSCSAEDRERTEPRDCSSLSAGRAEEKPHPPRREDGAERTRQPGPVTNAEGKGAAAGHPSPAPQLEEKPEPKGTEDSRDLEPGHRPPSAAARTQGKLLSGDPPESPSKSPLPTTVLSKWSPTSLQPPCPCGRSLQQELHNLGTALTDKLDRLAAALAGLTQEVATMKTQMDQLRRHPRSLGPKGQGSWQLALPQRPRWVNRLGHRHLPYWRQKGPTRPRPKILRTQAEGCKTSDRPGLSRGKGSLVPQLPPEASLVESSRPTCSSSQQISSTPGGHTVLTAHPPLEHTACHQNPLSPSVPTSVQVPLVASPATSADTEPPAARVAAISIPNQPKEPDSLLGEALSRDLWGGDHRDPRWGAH
Nature of the experiment: pull-down; GST or GST fusion on Glutathione Sepharose beads; 35S-labelled in vitro translated PAT1a; buffer H (50 mM Tris pH 6.8, 50 mM KCl, 100 mM NaCl, 2 mM CaCl2, 2 mM MgCl2, 0.1% Triton X-100, 5 mM dithiothreitol), 90 min; SDS-PAGE and autoradiography; only the target purified.

Experiment [5] concerns the target T4, GST-RME-6 (561-1170) (Mus musculus (house mouse)) (UniProt Q6PAR5).
T4 sequence: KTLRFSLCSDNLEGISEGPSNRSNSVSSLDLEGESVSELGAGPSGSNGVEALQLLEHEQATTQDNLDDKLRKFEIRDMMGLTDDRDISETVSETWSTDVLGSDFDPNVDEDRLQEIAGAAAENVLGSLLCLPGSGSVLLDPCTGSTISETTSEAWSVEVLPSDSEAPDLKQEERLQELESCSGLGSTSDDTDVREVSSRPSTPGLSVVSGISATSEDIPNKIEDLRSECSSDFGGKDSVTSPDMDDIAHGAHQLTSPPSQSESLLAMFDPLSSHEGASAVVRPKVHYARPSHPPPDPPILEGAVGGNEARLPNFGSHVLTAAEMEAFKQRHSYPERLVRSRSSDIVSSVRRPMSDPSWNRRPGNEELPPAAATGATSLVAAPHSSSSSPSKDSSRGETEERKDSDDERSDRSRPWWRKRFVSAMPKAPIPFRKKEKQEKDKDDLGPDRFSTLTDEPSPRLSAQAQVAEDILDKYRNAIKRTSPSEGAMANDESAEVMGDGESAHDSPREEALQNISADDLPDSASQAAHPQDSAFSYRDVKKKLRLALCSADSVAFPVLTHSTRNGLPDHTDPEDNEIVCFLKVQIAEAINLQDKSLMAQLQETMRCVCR
Described as above.

In experiment [6] the target is T5, GST-sf3b155 (1-598) (Mus musculus (house mouse)) (UniProt Q99NB9).
T5 sequence: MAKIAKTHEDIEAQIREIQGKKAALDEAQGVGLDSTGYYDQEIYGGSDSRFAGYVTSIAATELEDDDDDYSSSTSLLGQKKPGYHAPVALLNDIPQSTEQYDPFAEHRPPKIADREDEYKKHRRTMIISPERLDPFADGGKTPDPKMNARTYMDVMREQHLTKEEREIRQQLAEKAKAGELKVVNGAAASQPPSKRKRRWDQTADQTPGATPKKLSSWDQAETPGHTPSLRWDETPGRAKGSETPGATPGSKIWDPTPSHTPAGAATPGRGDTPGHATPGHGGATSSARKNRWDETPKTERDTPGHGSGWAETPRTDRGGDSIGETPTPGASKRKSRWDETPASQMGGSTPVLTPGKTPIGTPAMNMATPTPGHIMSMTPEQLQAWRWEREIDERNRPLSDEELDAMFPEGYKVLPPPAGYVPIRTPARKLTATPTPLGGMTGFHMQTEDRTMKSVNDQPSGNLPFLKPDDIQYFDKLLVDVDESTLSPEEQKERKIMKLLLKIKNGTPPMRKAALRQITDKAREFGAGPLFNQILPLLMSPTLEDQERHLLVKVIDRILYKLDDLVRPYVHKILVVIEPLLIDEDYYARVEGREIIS
Described as above.

Results are given in words; binding and its absence hold for the method and conditions named. For some assays here: Binding seen in cells or lysates may run through a third protein. Some entries that bind do so weakly or less than the wild type. For some assays here: Tags and fused reporters may be left off the sequences shown.

Regarding “C-terminally HA-tagged PAT1a (from UniProt Q92624 1-585)”, the results for the binding entry in experiment [1] and in experiment [2] were “binds weakly” and “binds”, respectively.
For GAL4 AD-DLC1 (from UniProt P63170 1-89), the binding result with LexA BD-gephyrin is reported as “binds”; in experiment [3] it was “no binding”.
On to “GAL4 AD-PR65 (268-590) (alpha-subunit of protein phosphatase 2A) (from UniProt Q76MZ3 268-589) (domain or fragment)”, for which, in experiment [3], the binding result is “no binding”.
Consider “in vitro translated, 35S-labelled PAT1a (from UniProt Q92624 1-585)”, for which the binding entry in experiment [4], in experiment [5] and in experiment [6] was “binds” in each case.
